# Over roughly 33,000 sequences, “E-score (-0.5 to 0.5)” has its median near -0.04; the highest 2% begin near 0.36. Some of the results follow.
# Biological target: T1, Hmlalpha2 (UniProt P0CY09)
# T1 sequence: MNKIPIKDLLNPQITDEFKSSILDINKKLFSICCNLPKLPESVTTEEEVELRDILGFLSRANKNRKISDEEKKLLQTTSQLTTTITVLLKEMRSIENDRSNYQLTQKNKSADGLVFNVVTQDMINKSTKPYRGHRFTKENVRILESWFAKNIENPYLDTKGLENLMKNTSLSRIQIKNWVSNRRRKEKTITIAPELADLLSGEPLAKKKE
# Assay: PBM E-score (8-mer binding enrichment) (E-score (-0.5 to 0.5)); higher = stronger / more preferred TF binding; most listed sequences are background and not binding sites
# Settings: protein concentration: 200 nM; construct: GST-full length
# Procedure: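 Universal 'all 10-mer' protein binding microarrays (Agilent AMADID 015681) probed with GST-tagged S. cerevisiae TFs (full-length or DBD) made by in vitro transcription/translation (PURExpress), about 100-200 nM. Bound TF was detected with fluorescent anti-GST. Each ungapped 8-mer (which stands for itself and its reverse complement) is scored by the PBM enrichment score (E-score), a modified Wilcoxon-Mann-Whitney statistic from -0.5 to +0.5, computed with the Universal PBM Analysis Suite. Scale: above 0.35 generally sequence-specific binding.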
row,Sequence,PBM E-score
1,AGTGCACG,-0.0358
2,ATCGCGTC,0.216
3,CAATATGC,0.0605
4,AGGTTTTA,-0.0178
5,CGCTCCTA,-0.0984
6,ACTTGACT,0.053
7,ACCAGTTG,-0.0443
8,CTAGTCTA,-0.24
9,TCCCTGAA,-0.0392
10,AACTCTAT,-0.0589
11,AAATTCGT,0.15
12,ACTACTAA,0.0347
13,CCCGGTAA,0.0478
14,AATCTTTA,0.129
15,AAAAGCTC,-0.151
16,CTATAGAG,-0.106
17,CCTTGGTC,-0.217
18,CGCCACGC,-0.179
19,AACCAGGA,0.0791
20,CTACCATA,-0.113
21,CCTAGACC,-0.202
22,GTGACCAC,-0.348
23,TAGCAAAA,0.102
24,CCCGTGGA,-0.176
25,GAGGAACA,0.0703

row,Sequence,PBM E-score
1,CCCCCCAA,-0.324
2,CCGCCGTA,-0.238
3,GCGCCTAC,0.0758
4,CTGTGACC,-0.274
5,CACCAAAC,0.115
6,ACACGCAT,0.388
7,ATGCGCTG,0.0545
8,ATTACTTG,0.34
9,GATCCTTA,0.0045
10,CTGGATCC,-0.25
11,AGAAGGCG,-0.279
12,GGGTGGGA,-0.291
13,AATACGGT,0.0471
14,GAACTCTC,-0.159
15,ACTGGTGG,-0.29
16,GGGTCGGA,-0.205
17,GAACCTCA,-0.0734
18,CGAGTGTC,-0.058
19,GTGGACAA,-0.0203
20,CTATTACA,0.442
21,AAGGGTCC,-0.247
22,TAAGCCCA,-0.0753
23,AACGTCCC,0.0108
24,CCAGCTAC,-0.0218
25,CGATCGCC,-0.0998

row,Sequence,PBM E-score
1,CACGCTAC,0.148
2,AAAGGAGC,-0.138
3,GAAGTACA,0.272
4,ACTAGCCA,-0.0414
5,AAGACTCC,-0.354
6,CAGCTTTA,-0.0513
7,AGCGCCTA,0.0161
8,CGGGTGTC,-0.0286
9,GGGTTTCA,0.0333
10,GCCGGATA,-0.0927
11,CGCGCTAC,0.0867
12,GGTCCCGA,-0.306
13,ATAGCCTC,-0.203
14,AAACTTGG,-0.155
15,TGTCAACA,0.331
16,ACTCGGTG,-0.0952
17,ATGTAACC,0.304
18,CAGACAAC,0.00285
19,CTCTTTCC,-0.399
20,ACACGGAG,0.315
21,CCTACTGA,-0.109
22,TGAGTCCA,-0.147
23,GAAGCCTC,-0.215
24,AATGATGT,0.234
25,GCCTTACC,-0.214

row,Sequence,PBM E-score
1,AACTACAA,0.242
2,AGTTCCGG,-0.191
3,GGTGCGGA,0.0644
4,GCACCGTA,-0.146
5,CGCACAAA,0.159
6,ATTCGGAA,0.0863
7,ACGAACCT,-0.0493
8,CTAGTATA,0.0873
9,ATCCAGCG,-0.0893
10,AGGGTACT,-0.161
11,ACTCAGAG,-0.0325
12,TAGACATA,0.209
13,AGACTCAT,-0.0539
14,ATTCGGGG,-0.248
15,CACCTGAC,-0.0593
16,ATAAGCTG,0.0283
17,CGCGCTTC,-0.0187
18,CGGCTCCC,-0.214
19,CAAGTGGC,-0.13
20,TCTCAAAA,0.028
21,GCCAAGAA,0.00193
22,GGTTAGGA,-0.263
23,AACCATAT,-0.0658
24,CGGAGCGA,-0.0515
25,GGAGTAAA,0.242

row,Sequence,PBM E-score
1,ATCGCGCC,-0.0319
2,AACAGCTT,-0.0334
3,TACCTTGA,0.0442
4,AATTATAA,0.118
5,AAAGATGC,-0.0501
6,TAAGAAGA,0.0717
7,ATACCGAT,-0.139
8,ACCATACT,0.129
9,CGACTCCC,-0.237
10,CCACGCAG,0.0176
11,GCGAACCA,-0.0127
12,ATGAAAGG,-0.051
13,GAGGCGCA,-0.326
14,GTATAAAC,0.246
15,AAGTGCGC,-0.239
16,GGAGCCTA,-0.248
17,CATAAGAA,0.15
18,CTAATAGC,-0.0392
19,AGTATGGG,-0.143
20,ATGTCAAG,0.305
21,AAATAGGC,-0.0645
22,GAAGACCC,-0.382
23,TAAATGGA,0.0536
24,CCCAAATA,-0.089
25,ACCGTTGC,-0.236

row,Sequence,PBM E-score
1,CGAGCTAC,-0.0354
2,TACGGTCA,-0.0514
3,AGGTTGCG,-0.0647
4,ATGCGATC,0.0321
5,AGGACCAT,-0.212
6,GGAGGTCA,-0.233
7,CATTAATC,0.123
8,AGTCCTAC,-0.0223
9,AAACATAC,0.267
10,GATCATAA,0.0574
11,TCGCGGCA,-0.165
12,CCTACGGC,-0.293
13,CACGACTG,-0.0303
14,ACCCCTCA,-0.27
15,AACTGTGA,0.0641
16,CCCGTCAG,-0.315
17,GGAAAGTA,-0.136
18,TCACGGGA,-0.106
19,AGATACAT,0.388
20,TGACAAAA,0.146
21,TGCGCCCA,-0.202
22,ACCTTCGA,-0.151
23,GGACAACA,0.223
24,ACACGACT,0.391
25,CATCGCAA,0.024

row,Sequence,PBM E-score
1,GAACCTGA,-0.13
2,CAGCTTAA,0.136
3,AACTTCAA,0.183
4,CTACGCGA,0.277
5,ATAAAACC,-0.12
6,GTGAAATA,0.185
7,ATAAGAGA,-0.0444
8,CATGACAG,0.108
9,ATACATAG,0.415
10,AACCAATC,0.0359
11,TGGACCCA,-0.124
12,AAGCGAGC,-0.00615
13,GGACACCC,-0.423
14,GCAAGCGC,-0.271
15,ACGAAAGT,-0.00393
16,AAATGAGT,0.1
17,TAGTCATA,0.0124
18,GGAAGACA,0.0409
19,AATACCAT,0.24
20,ACTATTAG,-0.0916
21,ACTCCGAA,-0.114
22,AAAAGGTA,0.126
23,ATAAAGAA,0.0809
24,CACCAAAA,0.0947
25,CACTAGGC,-0.132

row,Sequence,PBM E-score
1,AGGAGTGG,-0.145
2,TCTGGTCA,-0.0252
3,ATTCAAGC,0.0409
4,ACTACGGA,-0.223
5,AACACTGC,0.123
6,ATCGGTAG,0.0267
7,ACCAGGGC,-0.106
8,TAAGGGCA,-0.0721
9,CAATCATA,0.108
10,GATAAAAC,0.202
11,CCGAGTCA,-0.107
12,TACCCGGA,-0.0376
13,AGTCAGCC,-0.2
14,CCAATGGC,-0.212
15,CATGAATC,0.0618
16,AATCGTAA,0.132
17,CCAGCATC,-0.187
18,CGCTTGTC,-0.0392
19,GAGACCGC,-0.256
20,GTGCTGTA,0.114
21,CTACCCCA,-0.146
22,CTGATCTA,-0.0126
23,ACCGCTCT,-0.165
24,AGCAGCGG,-0.213
25,ATGGCTCC,0.0615

row,Sequence,PBM E-score
1,CCCGGTCG,-0.384
2,GGACGACC,-0.205
3,CAGCAACG,0.18
4,AGCTGAGA,-0.157
5,AGCTAGAA,-0.0183
6,AAACGTTC,0.0374
7,GAGGCTCC,-0.171
8,TAAAGTTA,0.242
9,CCGCGACC,-0.289
10,AAATTGCC,-0.0531
11,AGCCACGC,-0.181
12,ATAGTTTG,0.131
13,AAGTTCCA,-0.101
14,CAAGGGCC,-0.151
15,ATGCGAGG,-0.117
16,ATGCGATA,0.0621
17,GCGGTTTA,0.0488
18,GCCTTGAA,-0.287
19,AATCCTAG,0.0164

# — the supplement of paper PMC3334620
